Test results reported in patent publication US20160122768A1 (LA JOLLA INSTITUTE FOR ALLERGY AND IMMUNOLOGY, published 2016).

Target: T1, C-terminally HA-tagged wild type (WT) RPTPκ (NM 008983.2), full-length, immunoprecipitated from COS-1 cells (UniProt P35822 26-1457)
T1 construct: It was held on anti-HA immunoprecipitate beads in the assay; also called HA-tagged WT RPTPκ; full-length RPTPk; not shown: C-terminal HA tag
T1 sequence (looked up): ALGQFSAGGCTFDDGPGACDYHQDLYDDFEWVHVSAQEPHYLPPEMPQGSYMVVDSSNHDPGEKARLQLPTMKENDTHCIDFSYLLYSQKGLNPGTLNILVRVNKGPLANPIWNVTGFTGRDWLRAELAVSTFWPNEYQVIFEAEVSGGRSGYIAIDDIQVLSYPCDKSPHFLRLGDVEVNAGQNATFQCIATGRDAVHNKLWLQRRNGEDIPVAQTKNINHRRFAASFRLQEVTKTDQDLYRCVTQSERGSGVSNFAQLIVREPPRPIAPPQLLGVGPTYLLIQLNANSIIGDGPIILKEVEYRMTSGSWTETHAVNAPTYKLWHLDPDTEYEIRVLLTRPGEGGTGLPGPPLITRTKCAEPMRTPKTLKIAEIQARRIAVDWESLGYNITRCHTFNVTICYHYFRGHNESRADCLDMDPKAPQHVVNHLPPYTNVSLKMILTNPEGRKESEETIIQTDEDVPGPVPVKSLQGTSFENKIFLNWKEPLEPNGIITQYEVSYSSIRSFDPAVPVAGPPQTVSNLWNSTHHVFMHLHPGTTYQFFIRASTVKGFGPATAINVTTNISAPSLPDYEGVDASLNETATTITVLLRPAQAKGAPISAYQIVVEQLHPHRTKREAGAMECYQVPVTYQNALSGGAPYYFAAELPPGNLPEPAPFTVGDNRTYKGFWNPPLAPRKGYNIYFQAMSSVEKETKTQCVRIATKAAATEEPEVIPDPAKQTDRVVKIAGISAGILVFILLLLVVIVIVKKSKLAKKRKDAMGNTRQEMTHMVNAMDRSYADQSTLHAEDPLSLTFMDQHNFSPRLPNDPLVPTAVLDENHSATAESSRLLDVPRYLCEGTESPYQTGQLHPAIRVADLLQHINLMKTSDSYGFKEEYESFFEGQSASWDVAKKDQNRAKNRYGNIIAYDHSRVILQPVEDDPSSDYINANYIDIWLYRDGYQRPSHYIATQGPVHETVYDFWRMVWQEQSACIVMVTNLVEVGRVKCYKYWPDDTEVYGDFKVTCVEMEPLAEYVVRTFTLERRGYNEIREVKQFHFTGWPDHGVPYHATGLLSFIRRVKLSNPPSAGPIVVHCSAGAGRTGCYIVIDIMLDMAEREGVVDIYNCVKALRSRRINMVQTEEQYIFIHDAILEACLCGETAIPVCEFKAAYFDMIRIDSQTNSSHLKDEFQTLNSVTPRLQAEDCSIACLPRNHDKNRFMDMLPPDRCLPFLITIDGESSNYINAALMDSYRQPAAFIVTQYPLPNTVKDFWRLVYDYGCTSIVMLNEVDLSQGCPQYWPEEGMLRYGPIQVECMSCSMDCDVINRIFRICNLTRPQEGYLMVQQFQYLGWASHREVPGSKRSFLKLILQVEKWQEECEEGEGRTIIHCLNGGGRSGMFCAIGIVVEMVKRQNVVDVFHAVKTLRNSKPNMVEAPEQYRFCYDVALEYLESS
Experiment: pull-down of RA FLS lysates with immunoprecipitated HA-tagged RPTPκ, Western blotting
Procedure: In vitro Pull-Down Assay. HA-tagged WT RPTPκ was overexpressed in COS-1 cells. Cells were lysed in THE buffer (20 mM Tris-HCl pH 7.5, 150 mM NaCl, 5 mM EDTA pH 8.0 and 1% NP-40) containing 10 μg/mL aprotinin, 10 μg/mL leupeptin, 10 μg/mL soybean trypsin inhibitor, and 1 mM phenylmethylsulfonyl fluoride. RPTPκ was immunoprecipitated using anti-HA antibody (Covance, Princeton, N.J.). RA FLS were lysed in RIPA buffer containing 10 μg/mL aprotinin, 10 μg/mL leupeptin, 10 μg/mL soybean trypsin inhibitor, 1 mM phenylmethylsulfonyl fluoride and 5 mM iodoacetamide. Lysates were treated with 10 mM dithiothreitol for 10 min, and then diluted 10-fold in buffer containing 25 mM Tris-HCl pH 7.6, 150 mM NaCl and 1 mM ethylenediaminetetraacetic acid. Immunoprecipitates were incubated with RA FLS lysates for 3 hr at 4° C., washed in the dilution buffer, and subjected to Western blotting.
We next investigated if RPTPk directly interacts with and/or dephosphorylates SFKs. HA-tagged RPTPκ was immunoprecipitated from COS-1 cells and incubated in vitro with RA FLS lysates, and pull-down was subjected to Western blotting. Both full-length RPTPk immunoprecipitated from COS-1 cells and a recombinant substrate-trapping mutant of the RPTPk catalytic domain (iPTPk-D1051A) precipitated SRC from RA FLS lysates in pull-down assays, but not YES or FYN (SFKs also expressed in FLS).

B1: FYN (endogenous, from RA FLS lysates) (enzyme)
chain: not shown
  binding result: no binding
